Measurements as given in the RNAGym collection of RNA variant scans (doi:10.1093/nar/gkz1192).
The source gives no read counts; variants with many changes may rest on few reads.

B1: CPEB3 Ribozyme (parent)
chain: UAACAGGGGGCCACAGCAGAAGCGUUCACGUCGCAGCCCCUGUCAGAUUCUGGUGAAUCUGCGAAUUCUGCUGUAUAUCUC

Variants of: B1
Experiment: self-cleavage, relative activity (ratio to wild type); higher = more cleavage; in vitro, sequencing
Outline: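 CPEB3 self-cleaving ribozyme mutant libraries were made by rounds of error-prone PCR, barcoded, and transcribed in vitro with T7 RNA polymerase for 5 hours at 37°C. Cleavage occurred during transcription and a 15 min DNase I step before EDTA stop. RNAs were reverse transcribed with template switching and Illumina-sequenced, with DNA sequencing mapping barcodes to variants. Relative activity is the variant's cleaved/total read fraction divided by wild type's (minimum 5 reads), averaged across three batches.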

| Variant | self-cleavage |
| --- | --- |
| UAACAGGGGGCCACAGCAGAAGCGUUCACGCCGCUGCCCCUGACAGAUUCUGGUGAAUCUGCGAAUUCUGCUGUAUUUCUC | 0.6 |
| UAACAGGGGGCCACAGCAGAAGCGUUCACGCCGCAGCCCCUGUCCGAUUCUGGUGAAUCUGCGAACUCUGCUGUAUAUCUC | 0.16 |
| UAACAGGGGGCCACAGCAGAAGCGUUCACGCCGCUGCCCCUGUCUGAUACUGGUGUAUCUGCGAAUUCUGCUGUAUAUCUC | 0.14 |
| UAACAGGGGGCCACAGCAGAAGCGUUCACGCCGCAGCCCCUGUCUGAUUCUGGUGAAUAUGCGAAUUAUGCUGUAUAUCUC | 0.13 |
| UAACAGGGGGCCACAGCAGAAGCGUUCACGCCGCUGCCCCUGUCUGAUUCUGAGGAAUCUGCGAAUUCUGCUGUAUAUCUC | 0.11 |
| UAACAGGGGGCCACAGCAGAAGCGUUCACGCCGCGGCCCCCGUCAGAAUCUGGUGAAACUGCGAAUUCUGCUUCAUAUCUC | 0.22 |
| UAACAGGGGGCCACAGCAGAAGCGUUCACGCCGCAGCCCCUGUCUGAUUCUGGUGGAUCUGCGAACUCUGCCGUAUAUCUC | 0.32 |
| UAACAGGGGGCCACAGCAGAAGCGUUCACGCCGCGGCCCCUGUCAGAUUCUUGCCAAUCUGCGGAUUCUGCUGUAUAUCUC | 0.98 |
| UAACAGGGGGCCACAGCAGAAGCGUUCACGCCGCGGCCCCUGUCAGAUUCCGGCGAAUCUGCGAAUCCUGCUGUAUAUCUC | 0.38 |
| UAACAGGGGGCCACAGCAGAAGCGUUCACGCCGCAGCCCCUGUCUGAUUCUGGUGAAUCUGCGAGUUCUGCUGUAUGUCUC | 0.08 |
| UAACAGGGGGCCACAGCAGAAGCGUUCACGCCGCCGCCCCUGUCAGAUCCUGGUGAAUCUGCGAAUUCUGCUGUAUAUCUC | 0.23 |
| UAACAGGGGGCCACAGCAGAAGCGUUCACGCCGCAGCCCCUGUCGGAUUCUGGUGAAUCUGCGAAUUCUACUGUAUAUCUC | 0.29 |
| UAACAGGGGGCCACAGCAGAAGCGUUCACGCCGCGGCCCCUGUCAGAUUCUGGUGGAUCUGCGAAUUCUGCUGUAUAUCUC | 0.91 |
| UAACAGGGGGCCACAGCAGAAGCGUUCACGCCGCUGCCCCUGUCAGAUUCUGGUGAAUCUGCGAAUCCUGCUGUGUAUCUC | 0.08 |
| UAACAGGGGGCCACAGCAGAAGCGUUCACGCCGCAGCCCCUGUCGGAUUCUGGUGAAUCGGCGAACUCUGCUGUGUAUCUC | 0.06 |
| UAACAGGGGGCCACAGCAGAAGCGUUCACGCCGCUGCCCCUGUCAGAUUUUGGUGAAUCUGCGAAUUCUGCUGUAUAUCCC | 0.28 |
| UAACAGGGGGCCACAGCAGAAGCGUUCACGCCGCUGCCCCUGUCUGAUUCUGGUGAAUCUGAGAAUUCUGCUGUAUUUCUC | 0.15 |

| Variant | self-cleavage |
| --- | --- |
| UAACAGGGGGCCACAGCAGAAGCGUUCACGCCGCAGCCCCUGUCGGAUUCUGGUAAAUCCGCGAAUUCUGCAGUAUAUCUC | 0.55 |
| UAACAGGGGGCCACAGCAGAAGCGUUCACGCCGCUGCCCCUGUCAGAUCCUGGUGAAUCUGCGAAUUCUGCUGUAUAUCUC | 0.15 |
| UAACAGGGGGCCACAGCAGAAGCGUUCACGCCGCUGCCCCUGUCAGAUUCUGGUGAAUCUGCGGAUUCUGCUGUAUAUCUC | 0.1 |
| UAACAGGGGGCCACAGCAGAAGCGUUCACGCCGCGGCCCCUGUCAGGUUCUGGUGGAUCUGCGAGUUCUGCUGUAUAUCUC | 0.59 |
| UAACAGGGGGCCACAGCAGAAGCGUUCACGCCGCAGCCCCUGUCGGAUCCUGGUGAAUCAGCGAAUUCUGCUGUAUAUCUC | 0.15 |
| UAACAGGGGGCCACAGCAGAAGCGUUCACGCCGCGGCCCCUGUCAGAUUCUGGUGAAUCAGCGGAUUCAGCUGUAUAUCAC | 0.55 |
| UAACAGGGGGCCACAGCAGAAGCGUUCACGCCGCCGUCCCUGUCGGAUUCUGGUGAAUCUGCGGAUUCUGCUGUAUAUCUC | 0.08 |
| UAACAGGGGGCCACAGCAGAAGCGUUCACGCCGCGGCUCCUGUCAGAUUCUGGUGGAUCAGCGAAUUCUGCUGUAUAUCUC | 0.3 |
| UAACAGGGGGCCACAGCAGAAGCGUUCACGCCGCAGCCCCUGUCUGAUUCUGGUGAAUCUGCGACUUCUGCUGUAUAUCUC | 0.13 |
| UAACAGGGGGCCACAGCAGAAGCGUUCACGCCGCGGCCCCUGUCUGAUUCUGGUGAAUCUGCGAAUUCAGCAGUAUAUCUC | 0.12 |
| UAACAGGGGGCCACAGCAGAAGCGUUCACGCCGCUGCCCCUGUCAGAUUCUGGUGAAUCUGCGAAUUCUGCUGUAUAACUC | 0.3 |
| UAACAGGGGGCCACAGCAGAAGCGUUCACGCCGCAGCCCCUGUCGGAUUCUGGUGAAUCCGCGAAUUCUGCUGUAUAUCUC | 1.07 |
| UAACAGGGGGCCACAGCAGAAGCGUUCACGCCGCCGCCCCUGUCAGACUCUGGAGAAUCUGCGAAUUCUGCUGUAUAUCUC | 0.43 |
| UAACAGGGGGCCACAGCAGAAGCGUUCACGCCGCAGCCCCUGUCGGACUCUGGUGAAUCUGCGAAUUCUGCUGUAUAUCUC | 0.22 |
| UAACAGGGGGCCACAGCAGAAGCGUUCACGCCGCAGCCCCUGUCCGAUUCUGGUGAGUCUGCGAAUUCUGCUGUAUGCCUC | 0.14 |
| UAACAGGGGGCCACAGCAGAAGCGUUCACGCCGCAGCCCCUGUCUGAUUCUGGUGAAUCUGCGAAUUCUGGCGUAUAUCUC | 0.11 |
| UAACAGGGGGCCACAGCAGAAGCGUUCACGCCGCGGCCCCUGUCAGAUUAUGGGGAAUCUGCGAAUUCUGCUGUAUAUCUC | 1.12 |
